The list shows a part of the results. At the low end of the ranking, values are background and their order means little.

For this assay, the target named is GST-SBP-SLBP (stem-loop binding protein) (UniProt Q14493). Put plainly: targeted RNA Bind-n-Seq.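 Note: DESeq read counts versus GST-SBP nonspecific binding control pulldown.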 Conditions: RBNS binding buffer: 25 mM Tris pH 7.5, 150 mM KCl, 3 mM MgCl2, 0.1% Tween, 0.5 mg/mL BSA, 1 mM DTT; 27 nM protein, 750 pM RNA pool; temperature not stated; high values mean tight binding.
With “GGUCACGUCUCAAUCAACUCUUUCUCCAGGGAAACCCCUGGCUAUCUCAACAGCUCGCAGUCAAG”, the binding signal (log2 fold change) is 0.0669.
In the case of “GGUCACGUCUCAAUCAACUCUUUCCCCAGGGAAAACCCUGGCAAUGUCAACAGCUCGCAGUCAAG”, the binding signal (log2 fold change) worked out at 0.222.
As to “GGUCACGUCUCAAUCAACUCUCACGAGGGGGGGAAAACCCCUUUACCCUCUAACUCAACAGCUCGCAGUCAAG”, the binding signal (log2 fold change) is -0.274.
In the case of “GGUCACGUCUCAAUCAACUCAAAGGAGGGGGGGAAAACCCCUUUACCCUCAUCAUCAACAGCUCGCAGUCAAG”, the binding signal (log2 fold change) is 0.00381.
The value for “GGUCACGUCUCAAUCAACUCUAUCUCCAGGGAAAGCCCUGGCAUACUCAACAGCUCGCAGUCAAG” was 0.107; that for “GGUCACGUCUCAAUCAACUCAUCCUCCAGGGAAAUCCCUGGCUAUCUCAACAGCUCGCAGUCAAG” was 0.258.
Turning to “GGUCACGUCUCAAUCAACUCAAUUCCCAGGGAAAACCCUGGCAUUUUCAACAGCUCGCAGUCAAG”, the binding signal (log2 fold change) was found to be 0.167.
With “GGUCACGUCUCAAUCAACUCUAUUUCCAGGGAAAUCCCUGGCUAUUUCAACAGCUCGCAGUCAAG”, the binding signal (log2 fold change) was 0.25.
The value for “GGUCACGUCUCAAUCAACUCUAUCUCAGGAGUUUCCUCCUGCUUUCUCAACAGCUCGCAGUCAAG” was 0.25; that for “GGUCACGUCUCAAUCAACUCAACUUCAGGAGUUUACUCCUGCAUUCUCAACAGCUCGCAGUCAAG” was 0.173; that for “GGUCACGUCUCAAUCAACUCUUUCGCAGGAGUUUACUCCUGGUAUUUCAACAGCUCGCAGUCAAG” was -0.142.
With “GGUCACGUCUCAAUCAACUCAUUUCCCAGGGAAACCCCUGGCUAUUUCAACAGCUCGCAGUCAAG”, the binding signal (log2 fold change) is 0.109.
On to “GGUCACGUCUCAAUCAACUCAAUCCCAGGAGUUUUCUCCUGUUAUCUCAACAGCUCGCAGUCAAG”, for which the binding signal (log2 fold change) was 0.241.
Turning to “GGUCACGUCUCAAUCAACUCAUCCCCCAGGGAAACCCCUGGCAUACUCAACAGCUCGCAGUCAAG”, the binding signal (log2 fold change) was -0.0372.
In the case of “GGUCACGUCUCAAUCAACUCAUCGGCAGGAGUUUACUCCUGGAAUCUCAACAGCUCGCAGUCAAG” it was -0.0689; in that of “GGUCACGUCUCAAUCAACUCUAUCUCAGGAGUUUCCUCCUGCAUUCUCAACAGCUCGCAGUCAAG”, 0.0395.
In the case of “GGUCACGUCUCAAUCAACUCAGUCUCAGGAGUUUUCUCCUGCAUUCUCAACAGCUCGCAGUCAAG”, the binding signal (log2 fold change) was determined as 0.215.
Take “GGUCACGUCUCAAUCAACUCAUUUUCCAGGGAAACCCCUGGUAAUUUCAACAGCUCGCAGUCAAG”: the binding signal (log2 fold change) is -0.0469.
“GGUCACGUCUCAAUCAACUCUUUCUCCAGGGAAAUCCCUGGCUUUCUCAACAGCUCGCAGUCAAG”: the binding signal (log2 fold change) worked out at 0.0186.
As for “GGUCACGUCUCAAUCAACUCUAAAGAGGGGGGGAAAACCCCUUUGCCCUCAUACUCAACAGCUCGCAGUCAAG”, the binding signal (log2 fold change) turned out to be 0.22.
“GGUCACGUCUCAAUCAACUCUUCGCCAGGAGUUUCCUCCUGUAUACUCAACAGCUCGCAGUCAAG”: the binding signal (log2 fold change) is -0.0422.
For “GGUCACGUCUCAAUCAACUCUUCCCCAGGAGUUUACUCCUGUAAUCUCAACAGCUCGCAGUCAAG”, the binding signal (log2 fold change) is 0.0304.
In the case of “GGUCACGUCUCAAUCAACUCAAUCUCAGGAGUUUACUCCUGCAAAUUCAACAGCUCGCAGUCAAG”, the binding signal (log2 fold change) is 0.045.
Turning to “GGUCACGUCUCAAUCAACUCUUUCUCCAGGGAAAGCCCUGGUUAUCUCAACAGCUCGCAGUCAAG”, the binding signal (log2 fold change) worked out at 0.274.
The value for “GGUCACGUCUCAAUCAACUCAUCUCCAGGAGUUUUCUCCUGCUAUCUCAACAGCUCGCAGUCAAG” was 0.106; that for “GGUCACGUCUCAAUCAACUCGUUUUCAGGAGUUUCCUCCUGCAAUUUCAACAGCUCGCAGUCAAG” was 0.0113.
With “GGUCACGUCUCAAUCAACUCUUCCUCCAGGGAAACCCCUGGUUAUGUCAACAGCUCGCAGUCAAG”, the binding signal (log2 fold change) amounted to 0.0594.
Regarding “GGUCACGUCUCAAUCAACUCCCUGGAGGGGGGGAAAACCCCUUUACCCUCAACAUCAACAGCUCGCAGUCAAG”, the binding signal (log2 fold change) amounted to 0.108.
For “GGUCACGUCUCAAUCAACUCUAUCUCCAGGGAAAACCCUGGUAUUCUCAACAGCUCGCAGUCAAG”, the binding signal (log2 fold change) came out at 0.277.
Turning to “GGUCACGUCUCAAUCAACUCUUCUUCCAGGGAAAGCCCUGGUUUUCUCAACAGCUCGCAGUCAAG”, the binding signal (log2 fold change) was -0.0258.
For the sequence “GGUCACGUCUCAAUCAACUCUUUUCCAGGAGUUUUCUCCUGUAAUCUCAACAGCUCGCAGUCAAG”, the binding signal (log2 fold change) was -0.263.
For the sequence “GGUCACGUCUCAAUCAACUCUUUCGCCAGGGAAACCCCUGGGUAUCUCAACAGCUCGCAGUCAAG”, the binding signal (log2 fold change) was -0.0435.
Turning to “GGUCACGUCUCAAUCAACUCUUUCCCCAGGGAAACCCCUGGCAAACUCAACAGCUCGCAGUCAAG”, the binding signal (log2 fold change) came out at 0.143.
In the case of “GGUCACGUCUCAAUCAACUCAUCGGCAGGAGUUUACUCCUGGAAAUUCAACAGCUCGCAGUCAAG” it was 0.227; in that of “GGUCACGUCUCAAUCAACUCAUCGUCCAGGGAAAUCCCUGGUAAUCUCAACAGCUCGCAGUCAAG”, 0.0367; in that of “GGUCACGUCUCAAUCAACUCACUCGAGGGGGGGAAAACCCCUUUACCCUCAUAAUCAACAGCUCGCAGUCAAG”, 0.257.
In the case of “GGUCACGUCUCAAUCAACUCAUCUUCCAGGGAAAUCCCUGGUUUUCUCAACAGCUCGCAGUCAAG” it was 0.00601; in that of “GGUCACGUCUCAAUCAACUCAACUUCCAGGGAAAUCCCUGGCUAACUCAACAGCUCGCAGUCAAG”, -0.00946.
With “GGUCACGUCUCAAUCAACUCAACUCCCAGGGAAAACCCUGGUUUACUCAACAGCUCGCAGUCAAG”, the binding signal (log2 fold change) was -0.291.
Turning to “GGUCACGUCUCAAUCAACUCAUCUUCAGGAGUUUGCUCCUGUAAUUUCAACAGCUCGCAGUCAAG”, the binding signal (log2 fold change) stood at 0.0838.
In the case of “GGUCACGUCUCAAUCAACUCAGUCCCCAGGGAAAUCCCUGGUUUUUUCAACAGCUCGCAGUCAAG” it was -0.0781.
As to “GGUCACGUCUCAAUCAACUCAAUGUCCAGGGAAAACCCUGGUUUUUUCAACAGCUCGCAGUCAAG”, the binding signal (log2 fold change) is -0.0911.
Take “GGUCACGUCUCAAUCAACUCUACAGAGGGGGGGAAAACCCCUUUACCCUCAUCGUCAACAGCUCGCAGUCAAG”: the binding signal (log2 fold change) was -0.171.
In the case of “GGUCACGUCUCAAUCAACUCAUUUCCAGGAGUUUUCUCCUGCAAUUUCAACAGCUCGCAGUCAAG” it was 0.0958.
In the case of “GGUCACGUCUCAAUCAACUCUUCGCCAGGAGUUUCCUCCUGCUUUUUCAACAGCUCGCAGUCAAG”, the binding signal (log2 fold change) is -0.148.
Regarding “GGUCACGUCUCAAUCAACUCAUCGGAGGGGGGGAAAACCCCUUUACCCUCACCAUCAACAGCUCGCAGUCAAG”, the binding signal (log2 fold change) is -0.166.
In the case of “GGUCACGUCUCAAUCAACUCAAACGAGGGGGGGAAAACCCCUUUGCCCUCAUCAUCAACAGCUCGCAGUCAAG” it was 0.219; in that of “GGUCACGUCUCAAUCAACUCUUUAGAGGGGGGGAAAACCCCUUUGCCCUCAUAAUCAACAGCUCGCAGUCAAG”, 0.271.
In the case of “GGUCACGUCUCAAUCAACUCAUUCUCCAGGGAAACCCCUGGCAUUCUCAACAGCUCGCAGUCAAG”, the binding signal (log2 fold change) was -0.158.
As for “GGUCACGUCUCAAUCAACUCAUUUUCAGGAGUUUGCUCCUGUAUUUUCAACAGCUCGCAGUCAAG”, the binding signal (log2 fold change) was -0.0738.
Consider “GGUCACGUCUCAAUCAACUCAUCUUCCAGGGAAACCCCUGGCUUACUCAACAGCUCGCAGUCAAG”, for which the binding signal (log2 fold change) amounted to 0.0942.
Take “GGUCACGUCUCAAUCAACUCAUUCCCAGGAGUUUCCUCCUGUUAAUUCAACAGCUCGCAGUCAAG”: the binding signal (log2 fold change) came out at 0.0858.
For the sequence “GGUCACGUCUCAAUCAACUCUACUCCAGGAGUUUACUCCUGUAAUUUCAACAGCUCGCAGUCAAG”, the binding signal (log2 fold change) is -0.338.
For the sequence “GGUCACGUCUCAAUCAACUCAUUCCCAGGAGUUUCCUCCUGUAAACUCAACAGCUCGCAGUCAAG”, the binding signal (log2 fold change) was determined as 0.164.
For the sequence “GGUCACGUCUCAAUCAACUCAAUCUCCAGGGAAAACCCUGGCAAUGUCAACAGCUCGCAGUCAAG”, the binding signal (log2 fold change) was 0.578.
Turning to “GGUCACGUCUCAAUCAACUCAUUUUCAGGAGUUUGCUCCUGUUUUUUCAACAGCUCGCAGUCAAG”, the binding signal (log2 fold change) was 0.00789.
With “GGUCACGUCUCAAUCAACUCAACAGAGGGGGGGAAAACCCCUUUACCCUCCAAAUCAACAGCUCGCAGUCAAG”, the binding signal (log2 fold change) was -0.224.
Turning to “GGUCACGUCUCAAUCAACUCAACUCCAGGAGUUUCCUCCUGCUAUCUCAACAGCUCGCAGUCAAG”, the binding signal (log2 fold change) stood at 0.199.
Turning to “GGUCACGUCUCAAUCAACUCAUCCCCCAGGGAAAGCCCUGGCUUUUUCAACAGCUCGCAGUCAAG”, the binding signal (log2 fold change) is -0.215.
The value for “GGUCACGUCUCAAUCAACUCAUUCCCAGGAGUUUUCUCCUGCAAUCUCAACAGCUCGCAGUCAAG” was -0.0261; that for “GGUCACGUCUCAAUCAACUCAACUUCAGGAGUUUCCUCCUGUUAAUUCAACAGCUCGCAGUCAAG” was -0.199; that for “GGUCACGUCUCAAUCAACUCUUUUUCAGGAGUUUCCUCCUGCAAAUUCAACAGCUCGCAGUCAAG” was 0.0665.
Regarding “GGUCACGUCUCAAUCAACUCUAUCCCCAGGGAAAACCCUGGUUUUUUCAACAGCUCGCAGUCAAG”, the binding signal (log2 fold change) was -0.12.
Consider “GGUCACGUCUCAAUCAACUCUUCGCCCAGGGAAAACCCUGGUUAUCUCAACAGCUCGCAGUCAAG”, for which the binding signal (log2 fold change) is -0.217.
On to “GGUCACGUCUCAAUCAACUCAACUUCAGGAGUUUCCUCCUGCUAACUCAACAGCUCGCAGUCAAG”, for which the binding signal (log2 fold change) was 0.017.
Turning to “GGUCACGUCUCAAUCAACUCUUCUCCCAGGGAAACCCCUGGCUUACUCAACAGCUCGCAGUCAAG”, the binding signal (log2 fold change) stood at 0.0804.
Take “GGUCACGUCUCAAUCAACUCUUCUUCAGGAGUUUUCUCCUGCUUACUCAACAGCUCGCAGUCAAG”: the binding signal (log2 fold change) came to 0.0178.
In the case of “GGUCACGUCUCAAUCAACUCUCAAGAGGGGGGGAAAACCCCUUUGCCCUCAAAAUCAACAGCUCGCAGUCAAG” it was -0.0605; in that of “GGUCACGUCUCAAUCAACUCACAAGAGGGGGGGAAAACCCCUUUACCCUCCUAUUCAACAGCUCGCAGUCAAG”, 0.107; in that of “GGUCACGUCUCAAUCAACUCAAUAGAGGGGGGGAAAACCCCUUUGCCCUCACCGUCAACAGCUCGCAGUCAAG”, -0.123.
The value for “GGUCACGUCUCAAUCAACUCAAUUUCAGGAGUUUACUCCUGUUUUUUCAACAGCUCGCAGUCAAG” was -0.0321; that for “GGUCACGUCUCAAUCAACUCUUCUCCCAGGGAAAACCCUGGUAAUGUCAACAGCUCGCAGUCAAG” was 0.222.
The value for “GGUCACGUCUCAAUCAACUCAUUCCCAGGAGUUUACUCCUGCAUAUUCAACAGCUCGCAGUCAAG” was -0.0471.
“GGUCACGUCUCAAUCAACUCCUUCGAGGGGGGGAAAACCCCUUUACCCUCAAAUUCAACAGCUCGCAGUCAAG”: the binding signal (log2 fold change) was -0.0686.

Values taken from paper PMC5892938.
